Results: publication PMC11809610, “Advanced multiparametric image spectroscopy and super-resolution microscopy reveal a minimal model of CD95 signal initiation” (Science Advances, 2024)

Target: the molecule itself
Assay: FRET or BRET; CELFIS (FRET-FLIM, donor lifetime, x_FRET for each cell) in live HeLa CD95^KO cells with bicistronic mCherry/mEGFP plasmids; no ligand; evaluated from 30 up to 1000 receptors/μm^2; 37°C

B1: CTLA4 (cytotoxic T lymphocyte-associated protein 4) without the last 23 amino acids, fused C-terminally to mEGFP or mCherry (receptor)
chain: not shown
notes: also called CTLA4DA; dimer control; not shown: mEGFP (donor copy) or mCherry (acceptor copy), C-terminal, kept
For B1, the “stoichiometry N” value was 2.
